# Laboratory results reported in the supplement of paper PMC8728848.
# This is one part of the list.
# B1: PX9961C-bth-497-22-497 (Bacteroides thetaiotaomicron) (protein)
# chain: DWLDLNTTSSVETGQAIVTLDDAQIALNGIYRLASGHSYYGDNYWYYGDCRAADVQARITKGDGKRVSPYYEYNVLASDNLNIVLPWNTVYKVIRQTNNLIQKIESGSIQSSDTKELNRIKSEALVMRGLSLFNLTRLFGMPYTNDKGASLGVPIETSPSDPTHKPSRSTVAQCYEQVVSDMSNALSGLRQETSNGYINYWAAQALLSRVYLNMGEYQKAYDAATDVIKNNGGRYQLYSYEEYPNVWGQDFQSESLFELYITLSEPSGGTGGEGAPMVYANEATVDWNNLILSEDFLNLLNEDPKDVRHCLTKESVIENNTGLPAAAMHEKVYLAKFPGKTGDDPKTNNICIIRLSEVYLNAAEAGLKKGTDIEEAQGYLNDIISRRTTDTSQQVSTETFTLDRILKERRKELVGEGEVFYDYLRNGLAIERKGSWHLETLKASNAQKIEATDLRIALPIPQSEIDANPNIQQNPR
# Tests used:
# Assay in all cases: glycan array binding signal (z-score within array); higher = stronger binding
# Settings in all cases: glycan notation: IUPAC condensed, linker removed
# Kdn(a2-3)Gal(b1-4)Glc = target: Kdn(a2-3)Gal(b1-4)Glc
# Method in brief: (§1)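 Glycan array data were curated from 3228 arrays in the Consortium for Functional Glycomics database and kept only where the protein sequence was available. Glycan names were converted to IUPAC-condensed notation, and columns mapping to the same glycan were averaged. The binding signal is a within-array Z-score, averaged across arrays of the same protein sequence at different concentrations or buffers and across linkers. Negative Z-scores can be read as non-binding.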
# Kdn(a2-3)Gal(b1-4)GlcNAc = target: Kdn(a2-3)Gal(b1-4)GlcNAc
# Method in brief: as §1
# [1] = target: Kdn(a2-3)Gal(b1-4)[Fuc(a1-3)]GlcNAc
# Method in brief: as §1
# Kdn(a2-6)Gal(b1-4)GlcNAc = target: Kdn(a2-6)Gal(b1-4)GlcNAc
# Method in brief: as §1
# [2] = target: Man(a1-2)Man(a1-2)Man(a1-3)Man
# Method in brief: as §1
# [3] = target: Man(a1-2)Man(a1-2)Man(a1-6)[Man(a1-3)]Man
# Method in brief: as §1
# Man(a1-2)Man(a1-3)Man = target: Man(a1-2)Man(a1-3)Man
# Method in brief: as §1
# [4] = target: Man(a1-2)Man(a1-3)[Man(a1-2)Man(a1-6)]Man
# Method in brief: as §1
# [5] = target: Man(a1-2)Man(a1-3)[Man(a1-2)Man(a1-6)]Man(a1-6)[Man(a1-2)Man(a1-2)Man(a1-3)]Man
# Method in brief: as §1
# [6] = target: Man(a1-2)Man(a1-3)[Man(a1-2)Man(a1-6)]Man(a1-6)[Man(a1-2)Man(a1-2)Man(a1-3)]Man(b1-4)GlcNAc(b1-4)GlcNAc
# Method in brief: as §1
# [7] = target: Man(a1-2)Man(a1-3)[Man(a1-6)]Man(a1-6)[Man(a1-2)Man(a1-3)]Man(b1-4)GlcNAc(b1-4)GlcNAc
# Method in brief: as §1
# [8] = target: Man(a1-2)Man(a1-6)[Man(a1-3)]Man(a1-6)[Man(a1-2)Man(a1-2)Man(a1-3)]Man
# Method in brief: as §1
# [9] = target: Man(a1-2)Man(a1-6)[Man(a1-3)]Man(a1-6)[Man(a1-2)Man(a1-2)Man(a1-3)]Man(b1-4)GlcNAc(b1-4)GlcNAc
# Method in brief: as §1
# Man(a1-3)[Man(a1-6)]Man = target: Man(a1-3)[Man(a1-6)]Man
# Method in brief: as §1
# [10] = target: Man(a1-3)[Man(a1-6)]Man(a1-6)[Man(a1-2)Man(a1-3)]Man(b1-4)GlcNAc(b1-4)GlcNAc
# Method in brief: as §1
# [11] = target: Man(a1-3)[Man(a1-6)]Man(a1-6)[Man(a1-3)]Man
# Method in brief: as §1
# [12] = target: Man(a1-3)[Man(a1-6)]Man(a1-6)[Man(a1-3)]Man(b1-4)GlcNAc(b1-4)GlcNAc
# Method in brief: as §1
# [13] = target: Man(a1-3)[Man(a1-6)]Man(b1-4)GlcNAc(b1-4)GlcNAc
# Method in brief: as §1
# [14] = target: Man(a1-3)[Man(a1-6)]Man(b1-4)GlcNAc(b1-4)[Fuc(a1-6)]GlcNAc
# Method in brief: as §1
# Man(a1-6)Man = target: Man(a1-6)Man
# Method in brief: as §1
# Man(b1-4)GlcNAc = target: Man(b1-4)GlcNAc
# Method in brief: as §1
# MurNAc(b1-4)GlcNAc = target: MurNAc(b1-4)GlcNAc
# Method in brief: as §1
# Neu5Ac(a2-3)Gal = target: Neu5Ac(a2-3)Gal
# Method in brief: as §1
# [15] = target: Neu5Ac(a2-3)Gal(b1-3)GalNAc
# Method in brief: as §1
# [16] = target: Neu5Ac(a2-3)Gal(b1-3)GalNAc(b1-3)Gal(a1-4)Gal(b1-4)Glc
# Method in brief: as §1
# [17] = target: Neu5Ac(a2-3)Gal(b1-3)GalNAc(b1-4)[Neu5Ac(a2-3)]Gal(b1-4)Glc
# Method in brief: as §1
# [18] = target: Neu5Ac(a2-3)Gal(b1-3)GalNAc(b1-4)[Neu5Ac(a2-8)Neu5Ac(a2-3)]Gal(b1-4)Glc
# Method in brief: as §1
# [19] = target: Neu5Ac(a2-3)Gal(b1-3)GalNAc6S
# Method in brief: as §1
# [20] = target: Neu5Ac(a2-3)Gal(b1-3)GlcNAc
# Method in brief: as §1
# [21] = target: Neu5Ac(a2-3)Gal(b1-3)GlcNAc(b1-2)Man
# Method in brief: as §1
# [22] = target: Neu5Ac(a2-3)Gal(b1-3)GlcNAc(b1-2)Man(a1-3)[GlcNAc(b1-4)][Neu5Ac(a2-3)Gal(b1-3)GlcNAc(b1-2)Man(a1-6)]Man(b1-4)GlcNAc(b1-4)GlcNAc
# Method in brief: as §1
# [23] = target: Neu5Ac(a2-3)Gal(b1-3)GlcNAc(b1-2)Man(a1-3)[Neu5Ac(a2-3)Gal(b1-3)GlcNAc(b1-2)Man(a1-6)]Man(b1-4)GlcNAc(b1-4)GlcNAc
# Method in brief: as §1
# [24] = target: Neu5Ac(a2-3)Gal(b1-3)GlcNAc(b1-3)Gal(b1-3)GlcNAc
# Method in brief: as §1
# [25] = target: Neu5Ac(a2-3)Gal(b1-3)GlcNAc(b1-3)Gal(b1-4)GlcNAc
# Method in brief: as §1
# [26] = target: Neu5Ac(a2-3)Gal(b1-3)GlcNAc(b1-3)GalNAc
# Method in brief: as §1
# [27] = target: Neu5Ac(a2-3)Gal(b1-3)GlcNAc(b1-4)Gal(b1-4)Glc
# Method in brief: as §1
# [28] = target: Neu5Ac(a2-3)Gal(b1-3)GlcNAc(b1-6)GalNAc
# Method in brief: as §1
# [29] = target: Neu5Ac(a2-3)Gal(b1-3)GlcNAc6S
# Method in brief: as §1
binder,measurement,setting,value
B1,glycan array binding signal (z-score),Kdn(a2-3)Gal(b1-4)Glc,0.416
same,glycan array binding signal (z-score),Kdn(a2-3)Gal(b1-4)GlcNAc,-0.456
same,glycan array binding signal (z-score),[1],-0.455
same,glycan array binding signal (z-score),Kdn(a2-6)Gal(b1-4)GlcNAc,-0.057
same,glycan array binding signal (z-score),[2],-0.329
same,glycan array binding signal (z-score),[3],-0.23
same,glycan array binding signal (z-score),Man(a1-2)Man(a1-3)Man,0.277
same,glycan array binding signal (z-score),[4],0.069
same,glycan array binding signal (z-score),[5],0.29
same,glycan array binding signal (z-score),[6],-0.823
same,glycan array binding signal (z-score),[7],-0.492
same,glycan array binding signal (z-score),[8],0.025
same,glycan array binding signal (z-score),[9],0.071
same,glycan array binding signal (z-score),Man(a1-3)[Man(a1-6)]Man,-0.06
same,glycan array binding signal (z-score),[10],-0.505
same,glycan array binding signal (z-score),[11],0.438
same,glycan array binding signal (z-score),[12],0.217
same,glycan array binding signal (z-score),[13],0.467
same,glycan array binding signal (z-score),[14],-0.057
same,glycan array binding signal (z-score),Man(a1-6)Man,-0.481
same,glycan array binding signal (z-score),Man(b1-4)GlcNAc,-0.206
same,glycan array binding signal (z-score),MurNAc(b1-4)GlcNAc,0.039
same,glycan array binding signal (z-score),Neu5Ac(a2-3)Gal,-0.499
same,glycan array binding signal (z-score),[15],0.385
same,glycan array binding signal (z-score),[16],-0.562
same,glycan array binding signal (z-score),[17],-0.488
same,glycan array binding signal (z-score),[18],0.021
same,glycan array binding signal (z-score),[19],0.621
same,glycan array binding signal (z-score),[20],-0.305
same,glycan array binding signal (z-score),[21],-0.458
same,glycan array binding signal (z-score),[22],-0.488
same,glycan array binding signal (z-score),[23],0.211
same,glycan array binding signal (z-score),[24],-0.653
same,glycan array binding signal (z-score),[25],0.993
same,glycan array binding signal (z-score),[26],-0.161
same,glycan array binding signal (z-score),[27],-0.102
same,glycan array binding signal (z-score),[28],-0.344
same,glycan array binding signal (z-score),[29],0.111
